In PubChem BioAssay (NCI):
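In this assay, cells in 96-well plates receive the compound at five concentrations for 48 hours. Endpoints are linearly interpolated between the surrounding concentrations. Here, GI50 denotes the concentration required for 50% inhibition of growth.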 Some entries of the source have several records that differ or are many. They are shown here; other results are not. The source may hold further records. For some of these results: The values listed for one entry are repeats across runs, samples, wells, individuals or studies. What stands in brackets tells the records apart. Letters hold for one entry only.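 The concentration for full growth arrest is given as TGI.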 For some of these results: A record mostly stands for its own series of concentrations, not given here; some values may only mark the edge of a range.

Legend:
Test in all cases: inhibition of tumour cell growth, NCI panel, 48 h
NCI-H226 lung = test system: NCI-H226 lung
PC-3 prostate = test system: PC-3 prostate
MOLT-4 leukemia = test system: MOLT-4 leukemia
DLD-1 colon = test system: DLD-1 colon
HL-60(TB) leukemia = test system: HL-60(TB) leukemia
DMS 114 small cell lung = test system: DMS 114 small cell lung
COLO 205 colon = test system: COLO 205 colon
M19-MEL melanoma = test system: M19-MEL melanoma
CAKI-1 renal = test system: CAKI-1 renal
LXFL 529 NSCLC = test system: LXFL 529 NSCLC
NCI-H522 lung = test system: NCI-H522 lung
RPMI-8226 leukemia = test system: RPMI-8226 leukemia
LOX IMVI melanoma = test system: LOX IMVI melanoma
NCI-H23 lung = test system: NCI-H23 lung
SW-620 colon = test system: SW-620 colon
NCI/ADR-RES ovarian = test system: NCI/ADR-RES ovarian
NCI-H460 lung = test system: NCI-H460 lung
HOP-92 NSCLC = test system: HOP-92 NSCLC
A549 NSCLC = test system: A549 NSCLC
OVCAR-5 ovarian = test system: OVCAR-5 ovarian
HCT-15 colon = test system: HCT-15 colon
U251 CNS = test system: U251 CNS
UO-31 renal = test system: UO-31 renal
SN12C renal = test system: SN12C renal
XF 498 CNS = test system: XF 498 CNS
OVCAR-8 ovarian = test system: OVCAR-8 ovarian
SK-MEL-2 melanoma = test system: SK-MEL-2 melanoma
OVCAR-4 ovarian = test system: OVCAR-4 ovarian
SNB-75 CNS = test system: SNB-75 CNS
SF-539 CNS = test system: SF-539 CNS
ACHN renal = test system: ACHN renal
CCRF-CEM leukemia = test system: CCRF-CEM leukemia
SF-268 CNS = test system: SF-268 CNS
HS 578T breast = test system: HS 578T breast
UACC-62 melanoma = test system: UACC-62 melanoma
HOP-62 NSCLC = test system: HOP-62 NSCLC
UACC-257 melanoma = test system: UACC-257 melanoma
BT-549 breast = test system: BT-549 breast

## CCNC(=O)Nc1ccc(-c2nc3c(c(N4CCOC[C@@H]4C)n2)CCN(C2COC2)C3)cc1
NCI-H226 lung
  TGI: > 36.9 µM [sample A, mean of 2 tests] and 1.37 µM [sample B, mean of 2 tests]
PC-3 prostate
  TGI: > 100 µM [sample A, mean of 2 tests] and 4.98 µM [sample B, mean of 2 tests]

## O=C1C(CN(Cc2ccccc2)Cc2ccccc2)CCCC1CN(Cc1ccccc1)Cc1ccccc1 (stereo not given)
MOLT-4 leukemia
  GI50: 8.14 µM [sample A, mean of 2 tests] and > 100 µM [sample B, mean of 3 tests]
DLD-1 colon
  GI50: 5.15 µM [sample A, mean of 2 tests] and > 100 µM [sample B, 1 test]
HL-60(TB) leukemia
  GI50: 5.71 µM [sample A, mean of 3 tests] and > 96.4 µM [sample B, mean of 3 tests]
DMS 114 small cell lung
  GI50: 5.31 µM [sample A, mean of 2 tests] and > 100 µM [sample B, 1 test]
COLO 205 colon
  GI50: 2.66 µM [sample A, mean of 2 tests] and > 84.2 µM [sample B, mean of 3 tests]
  TGI: 7.72 µM [sample A, mean of 2 tests] and > 100 µM [sample B, mean of 3 tests]
M19-MEL melanoma
  GI50: 7.11 µM [sample A, mean of 2 tests] and > 100 µM [sample B, 1 test]
CAKI-1 renal
  GI50: 6 µM [sample A, mean of 2 tests] and > 100 µM [sample B, mean of 2 tests]
LXFL 529 NSCLC
  GI50: 5.23 µM [sample A, mean of 2 tests] and > 100 µM [sample B, 1 test]
  TGI: 9.61 µM [sample A, mean of 2 tests] and > 100 µM [sample B, 1 test]
NCI-H522 lung
  GI50: 194 nM [sample A, mean of 2 tests] and > 100 µM [sample B, mean of 3 tests]
  TGI: 471 nM [sample A, mean of 2 tests] and > 100 µM [sample B, mean of 3 tests]
RPMI-8226 leukemia
  GI50: 2.09 µM [sample A, mean of 3 tests] and > 92.5 µM [sample B, mean of 3 tests]

## O=S(=O)(c1ccc2c(c1)C(=NO)c1cc(S(=O)(=O)N3CCCCC3)ccc1-2)N1CCCCC1
LOX IMVI melanoma
  GI50: 177 nM [sample A, 1 test] and 11.5 nM [sample B, mean of 2 tests]
  TGI: 342 nM [sample A, 1 test] and 25.4 nM [sample B, mean of 2 tests]

## C=C1CCCC(C)(C)[C@@H]1CC/C(C)=C/Cn1c2cccc(=O)c-2nc2ccccc21
NCI-H23 lung
  TGI: > 100 µM and 3.15 µM
SW-620 colon
  TGI: > 100 µM and 3.18 µM
NCI/ADR-RES ovarian
  TGI: > 100 µM and 2.23 µM
NCI-H460 lung
  TGI: 55 µM and 2.53 µM
DLD-1 colon
  TGI: 56.8 µM and 2.64 µM
HOP-92 NSCLC
  TGI: > 100 µM and 7.19 µM
A549 NSCLC
  TGI: > 100 µM and 3.52 µM
OVCAR-5 ovarian
  TGI: 92.3 µM and 8.03 µM
HCT-15 colon
  TGI: > 100 µM and 2.43 µM
U251 CNS
  TGI: 56.9 µM and 3.11 µM
COLO 205 colon
  TGI: > 100 µM and 3.94 µM
UO-31 renal
  TGI: > 100 µM and 8.99 µM
SN12C renal
  TGI: > 100 µM and 3.25 µM
M19-MEL melanoma
  TGI: > 100 µM and 2.68 µM
XF 498 CNS
  TGI: > 100 µM and 7.54 µM
OVCAR-8 ovarian
  TGI: > 100 µM and 4.32 µM
SK-MEL-2 melanoma
  TGI: > 100 µM and 6.11 µM
OVCAR-4 ovarian
  TGI: > 100 µM and 4.09 µM

## Nc1ccn(C2OC(CO[P+](=O)OC3C(CO[P+](=O)OC4C(CO[P+](=O)OC5C(CO[P+](=O)OC6C(CO[P+](=O)OC7C(CO[P+](=O)OC8C(CO[P+](=O)OC9C(CO[P+](=O)OC%10C(CO[P+](=O)OC%11C(CO)OC(n%12ccc(N)nc%12=O)C%11(F)F)OC(n%11ccc(N)nc%11=O)C%10(F)F)OC(n%10ccc(N)nc%10=O)C9(F)F)OC(n9ccc(N)nc9=O)C8(F)F)OC(n8ccc(N)nc8=O)C7(F)F)OC(n7ccc(N)nc7=O)C6(F)F)OC(n6ccc(N)nc6=O)C5(F)F)OC(n5ccc(N)nc5=O)C4(F)F)OC(n4ccc(N)nc4=O)C3(F)F)C(O)C2(F)F)c(=O)n1 (stereo not given)
NCI-H23 lung
  TGI: 358 nM and > 100 µM
SNB-75 CNS
  TGI: 891 nM and 44 µM
MOLT-4 leukemia
  TGI: 1.26 µM and 33.3 nM
NCI-H460 lung
  TGI: 2.65 µM and > 100 µM
SF-539 CNS
  TGI: 3.82 µM and > 100 µM
ACHN renal
  TGI: 5.43 µM and > 100 µM
CCRF-CEM leukemia
  TGI: 636 nM and 20 µM
HCT-15 colon
  TGI: 4.46 µM and > 100 µM
SF-268 CNS
  TGI: 636 nM and > 100 µM
HS 578T breast
  TGI: 9.07 µM and > 100 µM
UO-31 renal
  TGI: 1.28 µM and > 100 µM
SN12C renal
  TGI: 637 nM and 18.7 µM
UACC-62 melanoma
  TGI: 1.9 µM and 53.4 nM
HOP-62 NSCLC
  TGI: 7.8 µM and 94.5 µM
UACC-257 melanoma
  TGI: 5.27 µM and > 100 µM
CAKI-1 renal
  TGI: 6.04 µM and > 100 µM
OVCAR-8 ovarian
  TGI: 9.81 µM and > 100 µM
SK-MEL-2 melanoma
  TGI: 8.79 µM and > 100 µM
RPMI-8226 leukemia
  TGI: 4.11 µM and > 100 µM
BT-549 breast
  TGI: 3.09 µM and > 100 µM
